According to publication PMC3691018 (Bioorganic & medicinal chemistry letters, 2013):

Columns and labels:
S. aureus helicase [1] = biological target: T1, S. aureus helicase (Staphylococcus aureus, UniProt Q2G1S4); type: biochemical; details: malachite green detection
T1 sequence (Q2G1S4 1-466): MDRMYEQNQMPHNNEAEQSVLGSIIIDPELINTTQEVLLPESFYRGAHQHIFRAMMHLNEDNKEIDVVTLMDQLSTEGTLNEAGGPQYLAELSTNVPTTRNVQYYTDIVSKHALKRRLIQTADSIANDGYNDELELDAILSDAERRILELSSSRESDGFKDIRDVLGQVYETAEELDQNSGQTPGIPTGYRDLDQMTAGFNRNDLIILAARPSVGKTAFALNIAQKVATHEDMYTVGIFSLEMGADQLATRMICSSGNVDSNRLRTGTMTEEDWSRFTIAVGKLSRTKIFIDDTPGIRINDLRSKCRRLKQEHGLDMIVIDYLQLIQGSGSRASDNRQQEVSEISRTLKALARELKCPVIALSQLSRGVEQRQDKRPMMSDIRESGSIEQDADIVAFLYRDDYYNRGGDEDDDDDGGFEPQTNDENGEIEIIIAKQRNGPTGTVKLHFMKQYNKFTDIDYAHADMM

S. aureus helicase [2] = biological target: T1, S. aureus helicase; assay: biochemical
[3] = biological target: T2, S. aureus DNA replicative helicase (Staphylococcus aureus, UniProt Q2G1S4); type: biochemical
T2 sequence (Q2G1S4 1-466): T1 sequence (Q2G1S4 1-466)

Compound	Activity vs S. aureus helicase (in words) [3]	also measured
CNc1nc2ccc3nc(NC(=O)c4cccc(OC)c4)sc3c2s1 [Compound 49]		Inhibition of single-stranded DNA stimulated ATPase activity (S. aureus helicase [1]): failed to exhibit significant inhibition; IC50 (S. aureus helicase [2]): 2000 to 3800 nM; Variation of IC50 in response to changes in ATP concentration (S. aureus helicase [2]; varying ATP concentration): less than 2 fold; Variation of IC50 when oligonucleotide concentrations were altered (S. aureus helicase [2]; varying oligonucleotide (DNA) concentration): > 6.5 fold; Mode of inhibition (S. aureus helicase [2]; versus ATP and DNA substrate): noncompetitive with ATP but competitive with the DNA substrate
COc1cccc(C(=O)Nc2nc3ccc4nc(NC(C)C)sc4c3s2)c1 [Compound 51]	significantly reduced activity	
COc1cccc(C(=O)Nc2nc3ccc4nc(NCC(C)C)sc4c3s2)c1 [Compound 52]	modest inhibition	
COc1cccc(C(=O)Nc2nc3ccc4nc(NC5CCCCC5)sc4c3s2)c1 [Compound 53]	significantly reduced activity	
COc1cccc(C(=O)Nc2nc3ccc4nc(NCc5ccccc5)sc4c3s2)c1 [Compound 54]	significantly reduced activity	
CNc1nc2ccc3nc(NC(=O)c4cc(OC)c(OC)c(OC)c4)sc3c2s1 [Compound 59]		Inhibition of single-stranded DNA stimulated ATPase activity (S. aureus helicase [1]): failed to exhibit significant inhibition
COc1cc(CNc2nc3ccc4nc(SC)sc4c3s2)cc(OC)c1OC [Compound 64]	lost activities	
COc1cc(/C=N/c2nc3ccc4nc(SC)sc4c3s2)cc(OC)c1OC [Compound 65]	lost activities	
